The whole screen tested about 45,000 compounds, of which about 65 (0.1%) were called active. Calls come from the whole dose curve; as a rule, active = well fitted activation curve with a large enough effect; inconclusive = small, poorly fitted or top-dose-only effect; inactive = no such curve, though single readings can be large or run the other way. This is one part of the list.
What follows are molecules tested against Galactocerebrosidase (Homo sapiens) (UniProt P54803) (assay: A Novel Cell-Based Assay to Identify Small Molecules for B -Galactocerebrosidase). Conditions: 145M-Twi-hGALC-G270D cells (Twitcher mouse brain line with human GALC G270D), HMU-beta-Gal fluorescence, 48 h; series mostly up to 57.5 µM; activation: at the top concentration.
UniProt P54803, sequence (P54803 whole entry, looked up): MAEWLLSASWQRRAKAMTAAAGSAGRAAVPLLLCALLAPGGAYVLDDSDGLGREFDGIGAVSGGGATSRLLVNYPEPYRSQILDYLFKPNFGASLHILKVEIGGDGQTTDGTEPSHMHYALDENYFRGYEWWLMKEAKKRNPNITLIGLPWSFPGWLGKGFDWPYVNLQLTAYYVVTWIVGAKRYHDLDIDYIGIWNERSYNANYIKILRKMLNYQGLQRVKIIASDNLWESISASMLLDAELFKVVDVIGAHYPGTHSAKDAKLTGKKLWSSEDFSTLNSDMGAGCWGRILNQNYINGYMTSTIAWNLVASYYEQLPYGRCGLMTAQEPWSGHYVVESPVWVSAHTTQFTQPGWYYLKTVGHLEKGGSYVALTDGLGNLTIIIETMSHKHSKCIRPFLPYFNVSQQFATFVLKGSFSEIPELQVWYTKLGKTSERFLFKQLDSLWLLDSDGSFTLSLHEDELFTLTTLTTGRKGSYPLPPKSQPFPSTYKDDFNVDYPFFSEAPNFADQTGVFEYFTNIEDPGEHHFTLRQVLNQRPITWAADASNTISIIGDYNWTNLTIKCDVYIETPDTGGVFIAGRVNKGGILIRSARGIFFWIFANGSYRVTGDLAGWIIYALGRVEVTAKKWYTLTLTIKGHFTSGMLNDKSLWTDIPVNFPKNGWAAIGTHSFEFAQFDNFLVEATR
How it was run: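 Fluorescence readout: HMU-β-gal cleavage by mutant GALC (0.1 mM final, citrate/phosphate pH 5.2 with 1 mg/mL taurocholate), stopped with carbonate/bicarbonate plus Triton X-100. Cells: murine Twitcher 145M-Twi expressing human G270D GALC; qHTS for activators.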
Note: 0% is about no effect; nearly all actives have a fitted effect of over 65% in size.

SMILES | activation
COc1ccc(-c2noc(-c3ccc(N4CCCC4)c([N+](=O)[O-])c3)n2)cc1OC | inactive: -11.1%
CCc1ccc(-n2nc(C)c3c(C(=O)N4CCN(c5ccccc5)CC4)cc(C)nc32)cc1 | inactive: -11.8%
CCC(=O)O[C@]1(C(=O)CCl)[C@@H](C)C[C@H]2[C@@H]3CCC4=CC(=O)C=C[C@]4(C)[C@@]3(F)[C@@H](O)C[C@@]21C | inactive: -16.5%
CCC(=O)N1CCCc2cc(S(=O)(=O)N3CCC(C(=O)NCc4ccc(F)cc4)CC3)ccc21 | inactive: -12.8%
COc1ccc(C)cc1NC(=O)c1cc2c(=O)n3cccc(C)c3nc2s1 | inactive: -1.98%
Cc1cccc(C)c1-n1ncc(C(=O)O)c1C1CCN(C(=O)OC(C)(C)C)CC1 | inactive: -8.63%
Cc1nn2c(C)c(C(=O)NC(C)c3ccccc3)cnc2c1-c1ccc(F)cc1 (centres undefined) | inactive: -3.8%
CCOc1ccc(NC(=O)Cn2cnc3sc(C)c(S(=O)(=O)N4CCN(c5ccccc5OC)CC4)c3c2=O)cc1 | inactive: -8.19%
COc1ccc(NC(=O)c2ccco2)cc1NC(=O)C(C)(C)Oc1ccc(Cl)cc1 | inactive: -9.48%
COc1ccc(OC)c(C2CC(=O)Oc3c2c(=O)n(C)c2ccccc32)c1 (centres undefined) | inactive: 8.25%
O=C(NCC(c1cccs1)S(=O)(=O)c1ccccc1)c1ccc(C(F)(F)F)cc1 (centres undefined) | inactive: -6.84%
O=C(Nc1ccc(F)cc1)c1ccc2c(=O)n3c(nc2c1)CCCCC3 | inactive: 5.66%
Cc1cccc(N(CC(=O)Nc2ccccc2C(F)(F)F)S(=O)(=O)c2ccccc2)c1C | inactive: 4.21%
COc1ccc(Cl)cc1NC(=O)c1cn(C2CCCC2)c(=O)c2c1c1ccccc1n2C | inactive: -3.92%
CN(C)CCNC(=O)Cn1ccc2cc(S(=O)(=O)N3CCCCCC3)ccc21 | inactive: 7.78%
Cc1cccc(Cn2c(-c3cccc(Br)c3)nc3ccccc32)c1 | inactive: -11%
COc1ccccc1C(=O)NC1(C(F)(F)F)C(=O)Nc2c1c(=O)[nH]c(=O)n2-c1ccc(F)cc1 (centres undefined) | inactive: 0.964%
COc1ccc(CNC(=O)CSc2ncc3c(n2)-c2ccc(Cl)cc2N(Cc2ccccc2)S3(=O)=O)cc1 | inactive: 2.49%
Cc1cc(Cl)ccc1OCC(=O)N(Cc1ccco1)Cc1ccccc1F | inactive: -7.29%
COCCCNC(=O)CSc1nc2c(sc3ccccc32)c(=O)n1CCc1ccc(OC)c(OC)c1 | inactive: -5.54%
O=C(Cc1ccccc1)Nc1sc2c(c1C(=O)Nc1cccc(Cl)c1)CCCCC2 | inactive: -12.5%
CCc1nn2c(=O)cc(COC(=O)Cc3ccccc3)nc2s1 | inactive: -13.8%
CC(=O)c1ccc(NC(=O)C2CCN(c3nnc(C)c4c(C)n(-c5ccccc5)nc34)CC2)cc1 | inactive: -14.9%
CC(C)(C)C1CCc2c(sc(NC(=O)c3cccc(Cl)c3)c2C(=O)NCc2ccco2)C1 (centres undefined) | inactive: -4.84%

SMILES | activation
CC(C)OCCCn1c(=O)c2ccccc2n2c(-c3ccccc3)nnc12 | inactive: -22.6%
Cc1ccc(-c2cc(C(=O)N3CCN(S(=O)(=O)c4ccc(Br)cc4)CC3)[nH]n2)c(C)c1 | inactive: 5.83%
CC(C)CCOc1ccc(Cn2c(=O)oc3ccccc32)cc1 | inactive: -11.8%
Cc1ccc(S(=O)(=O)c2cn(Cc3ccccc3)c3cc(N4CCCCC4)c(F)cc3c2=O)cc1 | inactive: -12.1%
COc1cc(OC)c(NC(=O)CCS(=O)(=O)c2ccc3c(c2)oc(=O)n3C)cc1Cl | inactive: -21.5%
O=C(NCc1ccco1)c1ccc(Cn2c(SCc3ccccc3)nc3cccnc32)cc1 | inactive: -7.25%
COc1ccc(NC(=O)CSC2=Nc3ccccc3C3=NC(CC(=O)NCCc4ccccc4)C(=O)N23)cc1 (centres undefined) | inactive: -7.89%
COc1ccc(NCc2cccn2-c2nnc(N3CCCCCC3)s2)cc1 | inactive: -22.1%
CC1=C(C(=O)Nc2ccccc2C)C(c2cccs2)n2nc(SCc3ccccc3)nc2N1 (centres undefined) | inactive: -3.08%
CCc1ccc(S(=O)(=O)NCc2ccc3c(c2)CCN3C(=O)c2ccc(C)cc2)cc1 | inactive: 2.85%
CN(Cc1ccccc1)C(=O)CSc1nnc(-c2cccc(Cl)c2)o1 | inactive: -13.4%
CCOC(=O)c1c(C)sc(-c2c(-c3ccccc3)[nH]c3[nH]c(=O)[nH]c(=O)c23)c1O | inactive: 2.39%
CCc1ccc(CNC(=O)C2COc3ccc(OC)cc3C2)cc1 (centres undefined) | inactive: -1.34%
COc1ccc(-c2noc(-c3ccc(N4CCOCC4)c([N+](=O)[O-])c3)n2)cc1 | inactive: -4.45%
CN(C(=O)CC(=O)Nc1ccc2nc3n(c(=O)c2c1)CCCCC3)c1ccccc1F | inactive: 10.4%
Cc1scc(CN2CCN(c3ccccc3F)CC2)c1C | inactive: -11.1%
O=C(Cn1ncc2c(Cl)cccc21)NCc1cccc(Cl)c1 | inactive: -1.07%
CCc1ccc(-n2nc(CO)c(C(=O)NCCOC)n2)cc1 | inactive: -6.39%
CCn1cc(S(=O)(=O)c2cc(C)cc(C)c2)c(=O)c2cc(F)c(N3CCCCC3)cc21 | inactive: -16.1%
CC(C)(C)C1CCc2c(sc(NC(=O)C3c4ccccc4Oc4ccccc43)c2C(N)=O)C1 (centres undefined) | inactive: -7.28%
CCC(=O)N1c2ccc(S(=O)(=O)CCC(=O)NCc3ccccc3OC)cc2CC1C (centres undefined) | inactive: -10.7%
COc1ccc(OC)c(CNC(=O)Nc2cn(CC(C)C)c(=O)c3ccccc23)c1 | inactive: -32.1%
COc1ccc(Nc2c3c(nc4ccccc24)CCC3)cc1Cl | inactive: -46.9%
Cc1cccc(NC(=O)Cn2c(=O)n(Cc3ccc4c(c3)OCO4)c(=O)c3oc4ccccc4c32)c1C | inactive: -13.4%

SMILES | activation
Cc1ccc(CN(C(=O)COc2ccccc2Cl)c2ccccn2)o1 | inactive: -14%
Cc1ccc(CNS(=O)(=O)c2ccc(C(=O)N(C)C)s2)cc1 | inactive: -1.98%
CCOc1ccc(NC(=O)Cn2c(=O)n(Cc3ccc4c(c3)OCO4)c(=O)c3ccc(C(=O)NC4CCCCC4)cc32)cc1 | inactive: -6.2%
O=C(Nc1ccc(S(=O)(=O)N2CCC(c3nc4ccccc4s3)CC2)cc1)c1ccccc1 | inactive: -8.54%
Cc1ccc(CNC(=O)Nc2cc(C(=O)NCc3cccc(F)c3)ccc2N2CCCC2)cc1 | inactive: -16.7%
COC(=O)c1nnn(CC(=O)NC(=O)Nc2ccc(F)cc2)c1C(=O)OC | inactive: -15.6%
CC(=O)N1CCc2cc(Br)cc(S(=O)(=O)N3CCC(C(=O)Nc4cccc(C)c4C)CC3)c21 | inactive: -9.4%
COCCSc1nc2c([nH]c3ccccc32)c(=O)n1-c1ccc(OC)c(OC)c1 | inactive: -11.3%
CCCCn1c(CNC(=O)C23CC4CC(CC(C4)C2)C3)nnc1SCC(=O)Nc1ccc(C)cc1 | inactive: -32%
CC1CCCCN1Cc1c(O)ccc2c(=O)c(-c3ccccc3Cl)c(C(F)(F)F)oc12 (centres undefined) | inactive: -9.8%
Cc1ccc(C2CC(=O)Nc3cc4c(cc32)OCCO4)cc1Br (centres undefined) | inactive: -12.9%
COCCNC(=O)Cn1ccc2cc(S(=O)(=O)N3CCCCCC3)ccc21 | inactive: -3.2%
Cc1ccc(-c2noc(CCC(=O)N(C)c3ccccc3F)n2)cc1 | inactive: -23.1%
CCn1c(=O)c2c(nc3n2CCN3c2ccc(OC)cc2)n(C)c1=O | inactive: 21.9%
CCOC(=O)N1CCC(n2c(=O)[nH]c3cc(Cl)ccc32)CC1 | inactive: -8.37%
CCOc1ccc(CCNC(=O)c2cc(=O)[nH]c3ccc(S(=O)(=O)N4CCCCC4C)cc23)cc1OCC (centres undefined) | inactive: -12.9%
Fc1ccccc1-c1nc(N2CCN(c3cccc(Cl)c3)CC2)c2ccccc2n1 | inactive: -14.9%
CCCc1cc(=O)n2[nH]c(NCc3c(F)cccc3Cl)nc2n1 | inactive: -20.4%
CCc1nn(CC(=O)NCCc2ccc(SC)cc2)c(=O)c2cc3sccc3n12 | inactive: 13%
Cc1ccc(C)c(N2CCN(C(=O)c3cc(C)nc4c3c(C)nn4-c3ccccc3)CC2)c1 | inactive: -6.06%
COc1cc(NC(=O)CCN2CCN(CCO)CC2)cc(OC)c1 | inactive: -14.5%
CCOc1ccc(OCC(=O)Nc2ccc(S(=O)(=O)Nc3cc(C)on3)cc2)cc1 | inactive: -2.79%
COc1cc(CN(C(=O)COc2ccc(F)cc2)c2ccccn2)cc(OC)c1OC | inactive: -32.7%
CCOC(=O)COc1ccc(-c2nnn(CC(=O)Nc3ccccc3)n2)cc1 | inactive: -9.53%

SMILES | activation
Cn1c(=O)c2sccc2n2c(CCCC(=O)Nc3ccc(Oc4ccccc4)cc3)nnc12 | inactive: -0.507%
Cc1ccc(NC(=O)c2ccc(=O)n(CC(=O)Nc3ccccc3)n2)cc1 | inactive: 0.294%
COc1ccc(N2CCN(S(=O)(=O)c3ccc4c(c3)C(C(C)C)C(=O)N4)CC2)cc1 (centres undefined) | inactive: -8.68%
Cn1c(/C(C#N)=C/c2ccccc2Br)nc2ccccc21 | inactive: -9.7%
CCn1c(CNC(=O)c2ccc(OC)cc2)nnc1SCC(=O)Nc1cc(C)ccc1C | inactive: -20.8%
Cc1ccc(C)c(NC(=O)C2CCN(S(=O)(=O)c3c(C)noc3/C=C/c3cccs3)CC2)c1 | inactive: -5.79%
Cc1sc2c(c1C)c(=O)n(CCc1ccccc1)c(=O)n2Cc1ccc(C(C)(C)C)cc1 | inactive: -8.65%
CCOCN(C(=O)Cn1c(COC)nc2ccccc21)c1c(C)cccc1CC | inactive: -8.07%
COc1ccc(Cl)cc1NC(=O)CSc1nccn1-c1ccc(Cl)cc1 | inactive: -13.1%
COc1ccc(S(=O)(=O)N2Cc3ccccc3CC2C(=O)Nc2cc(Cl)ccc2Cl)cc1 (centres undefined) | inactive: -1.84%
CCc1cccc(NS(=O)(=O)c2ccc3c(c2)CC(C)N3C(=O)C2CC2)c1 (centres undefined) | inactive: -16.8%
COc1ccccc1C(=O)NCc1nc2cccnc2n1Cc1ccc(F)cc1 | inactive: -9.19%
Cc1cccc(NC(=O)CSC2=Nc3ccccc3C3=NC(CC(=O)NCc4cccs4)C(=O)N23)c1 (centres undefined) | inactive: -20.6%
COc1cccc(CNC(=O)C2CCCN(S(=O)(=O)N(C)c3ccc(F)cc3)C2)c1OC (centres undefined) | inactive: -6.71%
COc1ccc(C(=O)NCCn2cc(SCc3ccc(C(F)(F)F)cc3)c3ccccc32)cc1OC | inactive: -22.7%
O=C(Nc1ccc(Oc2ccc(Cl)cc2)c(Cl)c1)c1cc(I)cc(I)c1O | inactive: -10.5%
COCCn1c(C)cc(O)c(C(c2ccccc2OC)N2CCN(c3ccccc3)CC2)c1=O (centres undefined) | inactive: 0.874%
COc1ccc(CNC(=O)CCCn2nc(C)n3c(cc4sccc43)c2=O)cc1 | inactive: -5.89%
COc1ccccc1/C=C/c1nc(C#N)c(NC2CCCCC2)o1 | inactive: -11.9%
COc1ccc(C(=O)c2cn(Cc3ccccc3F)c3cc4c(cc3c2=O)OCCO4)cc1OC | inactive: -8.11%
O=C(Nc1ccc2c(c1)CCCN2C(=O)c1cccs1)c1ccc(F)c(F)c1 | inactive: -21.5%
COc1ccc(-c2noc(CC(=O)N(C)c3cccc(C)c3)n2)cc1 | inactive: -17.5%
